{"source": "PubChem BioAssay AID485294", "about": "(National Center for Advancing Translational Sciences (NCATS), 2010)", "note": "The whole screen tested about 370,000 compounds, of which about 150 (0.041%) were called active. This list was built around the results that the source calls inconclusive (neither active nor inactive); the mix of calls is not that of the screen. The call rests on the fitted dose curve; in most records, active means well fitted inhibition curve with a large enough effect; inconclusive means small, poorly fitted or top-dose-only effect; inactive means flat fitted curve, though single readings scatter. Potencies of inconclusive entries are left out as doubtful fits. Potency means the concentration at half of the fitted maximal effect; tags describe the fitted curve by direction and shape."}
{"target": "Beta-lactamase (Escherichia coli (strain K12)) (UniProt P00811)", "sequence (P00811 whole entry, looked up)": "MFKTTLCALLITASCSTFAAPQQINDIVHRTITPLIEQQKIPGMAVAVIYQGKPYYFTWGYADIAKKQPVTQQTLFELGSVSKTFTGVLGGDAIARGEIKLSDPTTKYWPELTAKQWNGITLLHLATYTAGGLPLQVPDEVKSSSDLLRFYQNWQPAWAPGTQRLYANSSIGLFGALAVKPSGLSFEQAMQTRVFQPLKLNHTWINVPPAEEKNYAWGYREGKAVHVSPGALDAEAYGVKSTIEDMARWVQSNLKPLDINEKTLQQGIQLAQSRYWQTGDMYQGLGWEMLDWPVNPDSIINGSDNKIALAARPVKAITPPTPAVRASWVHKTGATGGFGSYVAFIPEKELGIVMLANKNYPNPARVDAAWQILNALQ", "experiment": "qHTS Inhibitors of AmpC Beta-Lactamase (assay with detergent); further: nearly all actives have a fitted effect of over 25% in size", "conditions": "AmpC hydrolysis of nitrocefin, absorbance 480 nm, 0.01% Triton; series mostly up to 114 µM", "outline": "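AmpC (5.3 nM in the dispensed reagent) in 20 mM phosphate pH 7.0 with 0.01% (detergent screen) or 0.0001% Triton X-100 was preincubated with compounds for 15 min at room temperature. Nitrocefin was then added from an 800 uM solution, and hydrolysis was followed at 480 nm.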"}
{"smiles": "Cc1ccc(C(=O)NCCn2cc(SCC(=O)N3CCOCC3)c3ccccc32)cc1", "Potency": "inconclusive [inhibitor, full curve, poor fit]"}
{"smiles": "C/C(=N\\NC(=O)c1cc(-c2cccc(OC(C)C)c2)nc2ccccc12)c1cccnc1", "Potency": "inconclusive [inhibitor, full curve, poor fit]"}
{"smiles": "CS(=O)(=O)Nc1ccccc1C(=O)NCCSc1ccccc1", "Potency": "inconclusive [inhibitor, full curve, poor fit]"}
{"smiles": "CN(C)CC/C=C1\\c2ccccc2COc2ccccc21", "Potency": "inactive"}
{"smiles": "COc1ccc(NC(=O)CCC(=O)c2cccs2)c(OC)c1", "Potency": "inactive"}
{"smiles": "CC1CC(C)CN(S(=O)(=O)c2ccc(NC(=O)C3COc4ccccc4O3)cc2)C1", "note": "(stereo not drawn)", "Potency": "inconclusive [inhibitor, full curve, poor fit]"}
{"smiles": "CCC(C)Oc1cc(-c2ccnc(Nc3cccc(Cl)c3)n2)ccn1", "note": "(stereo not drawn)", "Potency": "inactive"}
{"smiles": "CCCCn1c(N)c(N(CCC(C)C)C(=O)COC(=O)c2cccnc2Cl)c(=O)[nH]c1=O", "Potency": "inconclusive [inhibitor, single point]"}
{"smiles": "Cc1ccccc1CCNC(=O)c1cc(C2CC2)nc2c1cnn2C(C)C", "Potency": "inconclusive [inhibitor, partial curve, poor fit]"}
{"smiles": "CCc1noc(C)c1C(=O)N1CCN(S(=O)(=O)c2ccc(C(C)C)cc2)CC1", "Potency": "inconclusive [inhibitor, full curve, poor fit]"}
{"smiles": "CO[C@H]1C=CO[C@@]2(C)Oc3c(C)c(O)c4c(O)c(c5c(c4c3C2=O)NC2(CCN(CC(C)C)CC2)N=5)=NC(=O)C(C)=CC=C[C@H](C)[C@H](O)[C@@H](C)[C@@H](O)[C@@H](C)[C@H](OC(C)=O)[C@@H]1C", "Potency": "inactive"}
{"smiles": "CCCCC(OC(=O)c1cc2occc2n1C)C(=O)NCC1CCCO1", "note": "(stereo not drawn)", "Potency": "inconclusive [inhibitor, full curve, poor fit]"}
{"smiles": "O=C(CN1C(=O)CSC1=O)Nc1ccc(C(=O)O)cc1", "Potency": "inconclusive [inhibitor, partial curve, poor fit]"}
{"smiles": "O=[N+]([O-])c1cccc(NC(=S)N2CCN(S(=O)(=O)c3ccccc3)CC2)c1", "Potency": "inactive"}
{"smiles": "O=C(Nc1nccs1)c1ccc(Br)s1", "Potency": "inconclusive [inhibitor, partial curve]"}
{"smiles": "COCc1[nH]nc2c1C(c1ccc(OC)cc1)C(C#N)=C(N)O2", "note": "(stereo not drawn)", "Potency": "inactive"}
{"smiles": "O=C(CN1C(=O)S/C(=C\\c2cccs2)C1=O)Nc1ccc(O)c(C(=O)O)c1", "Potency": "inactive"}
{"smiles": "CC1=NN(S(=O)(=O)c2ccc(Cl)cc2Cl)C(=O)c2ccccc2O1", "Potency": "inconclusive [inhibitor, partial curve]"}
{"smiles": "Cc1ccc(S(=O)(=O)N2CCC(C(=O)Nc3ccccc3N3CCCCC3)CC2)cc1", "Potency": "active: 31.6 µM"}
{"smiles": "CCc1n[nH]c2c1/C(=N\\O)CC(C)(C)C2", "Potency": "inconclusive [inhibitor, partial curve, poor fit]"}
{"smiles": "Nc1c(C(=O)NCCc2ccccc2)nnn1Cc1ccc(Br)cc1F", "Potency": "inconclusive [inhibitor, partial curve]"}
{"smiles": "CCN1CC2([N+](=O)[O-])C=CC(=O)C([N+](=O)[O-])(C1)C2CC(=O)c1ccccc1", "note": "(stereo not drawn)", "Potency": "inactive"}
{"smiles": "COc1cccc2sc(NC(=O)CS(=O)(=O)c3ccc(C)cc3)nc12", "Potency": "inactive"}
{"smiles": "O=C(Nc1cccc(C(F)(F)F)c1)c1cc(-c2ccc(Cl)s2)nc2ccccc12", "Potency": "inactive"}
{"smiles": "C/C(Cn1nc([N+](=O)[O-])cc1C)=N\\NC(=O)c1ccc(O)cc1O", "Potency": "inconclusive [inhibitor, full curve]"}
{"smiles": "COc1cccc(COC(=O)c2ccc(-c3nnn(Cc4cccc(OC)c4)n3)cc2)c1", "Potency": "inactive"}
{"smiles": "COc1ccccc1NC(=O)c1ccc2nc(C)sc2c1", "Potency": "inactive"}
{"smiles": "COc1cccc(-c2cc(C(=O)Nn3cnnc3)c3ccccc3n2)c1", "Potency": "inactive"}
{"smiles": "Cc1cc(C)n(CC(O)CN2C(=O)NC(C)(C)C2=O)n1", "note": "(stereo not drawn)", "Potency": "inactive"}
{"smiles": "COc1ccc(C(=O)CC(c2ccccc2)S(=O)(=O)c2ccc(C)cc2)cc1", "note": "(stereo not drawn)", "Potency": "inactive"}
{"smiles": "COc1ccc(OC)c(S(=O)(=O)N(C)CC(=O)Nc2cc(Cl)ccc2OC)c1", "Potency": "inconclusive [inhibitor, partial curve, poor fit]"}
{"smiles": "O=C(COc1cccc(NC(=O)c2ccccc2)c1)c1ccc(F)cc1", "Potency": "inconclusive [inhibitor, partial curve]"}
{"smiles": "O=C(Cc1ccccc1F)NCC(=O)Nc1ccccc1Br", "Potency": "inactive"}
{"smiles": "Cc1ccc2nc(CCCc3nc4ccc(C)cc4[nH]3)[nH]c2c1", "Potency": "inconclusive [inhibitor, full curve, poor fit]"}
{"smiles": "CC(C)[C@H]1COC(NC2=N[C@@H](C(C)C)CO2)=N1", "Potency": "inconclusive [inhibitor, partial curve, poor fit]"}
{"smiles": "Cc1cc(O)c2c(c1)C(=O)C13C(=C2O)C(=O)[C@H]2[C@@H](O)[C@@H]1[C@H]1[C@H](O)[C@@H]3C(=O)C3=C(O)c4c(O)cc(C)cc4C(=O)C312", "note": "(stereo partly drawn)", "Potency": "inactive"}
{"smiles": "Cn1c(Cc2cccs2)nnc1SCC(=O)N1CCc2ccccc21", "Potency": "inactive"}
{"smiles": "N#Cc1ccc(COC(=O)C2CCC(=O)N2)cc1", "note": "(stereo not drawn)", "Potency": "inconclusive [inhibitor, full curve, poor fit]"}
{"smiles": "N#CC1=C(N)Oc2cc(O)c(C=Nc3ccccc3)cc2C1c1ccccc1", "note": "(stereo not drawn)", "Potency": "inactive"}
{"smiles": "Cc1cccc(NC(=O)CN(CC2CCCO2)C(=O)c2cc3ccccc3o2)c1C", "note": "(stereo not drawn)", "Potency": "inactive"}
{"smiles": "COc1cc(C(=O)Nc2ccc3c(c2)CCCN3C(=O)c2ccco2)c([N+](=O)[O-])cc1OC", "Potency": "inconclusive [inhibitor, full curve]"}
{"smiles": "Cc1ccc(C(=O)NC(=S)NCc2ccco2)cc1", "Potency": "inactive"}
{"smiles": "Cc1ccc(S(=O)(=O)/N=C2\\CN(C)C(=O)N2C)cc1", "Potency": "inactive"}
{"smiles": "Oc1cc(NCCN2CCOCC2)cc2cccnc12", "Potency": "inactive"}
{"smiles": "Cc1cccn2c(=O)c3cc(C(=O)NCCCN4CCOCC4)n(C)c3nc12", "Potency": "inconclusive [inhibitor, full curve, poor fit]"}
{"smiles": "COc1ccc(NC(=S)N(C)CC2COc3ccccc3O2)cc1", "note": "(stereo not drawn)", "Potency": "inactive"}
{"smiles": "O=C(NC1CCCc2ccccc21)C1CCN(S(=O)(=O)c2ccccc2)CC1", "note": "(stereo not drawn)", "Potency": "inconclusive [inhibitor, full curve]"}
{"smiles": "O=C(CN1CCOCC1)N/N=C/c1cccc2ccccc12", "Potency": "inconclusive [inhibitor, partial curve]"}
{"smiles": "O=C(Cc1ccc(S(=O)(=O)N2CCOCC2)s1)NCCOc1ccccc1", "Potency": "inconclusive [inhibitor, full curve, poor fit]"}
{"smiles": "CCn1nc(C)cc1-c1nnc(SCC(=O)Nc2ccccc2)n1CCCOC", "Potency": "inactive"}
{"smiles": "CCCn1c(N2CCN(C(=O)NCc3ccccc3)CC2)nc2ccccc21", "Potency": "inconclusive [inhibitor, full curve]"}
{"smiles": "COc1ccc(S(=O)(=O)N2CCOCC2)cc1NC(=O)CN1C(=O)NC(C)(C2CC2)C1=O", "note": "(stereo not drawn)", "Potency": "inconclusive [inhibitor, full curve, poor fit]"}
{"smiles": "CCOc1ccccc1NC(=S)NCCc1ccc(F)cc1", "Potency": "inconclusive [inhibitor, full curve, poor fit]"}
{"smiles": "CCCc1nn(-c2cc(Cl)ccc2OC)c2c1C(=O)CCC2", "Potency": "inconclusive [inhibitor, full curve]"}
{"smiles": "O=C(O)c1ccc(Cn2cnc3cccnc32)cc1", "Potency": "inactive"}
{"smiles": "CCc1ccc(CNC(=O)C2CCCN(c3nn4c(=O)cc(C)nc4s3)C2)cc1", "note": "(stereo not drawn)", "Potency": "inconclusive [inhibitor, single point]"}
{"smiles": "O=C(c1ccc(Cl)c(Cl)c1)N1CCOCC1", "Potency": "inconclusive [inhibitor, single point]"}
{"smiles": "COc1ccc(C(=O)CC(=O)C(=O)Nc2cc(OC)c(OC)c(OC)c2)cc1", "Potency": "inconclusive [inhibitor, full curve, poor fit]"}
{"smiles": "O=C(N1CCCCCC1)N1CCN(S(=O)(=O)N2CCCCC2)CC1", "Potency": "inconclusive [inhibitor, partial curve]"}
{"smiles": "CN(C)CCOc1nc(-c2ccccc2)nc2c1oc1ccccc12", "Potency": "inactive"}
{"smiles": "Cc1cc(/C=C2/C(=O)NN(c3ccccc3)C2=O)c(C)n1-c1cccc(O)c1", "Potency": "inactive"}
{"smiles": "CC1=NN(Cc2ccccc2)C(=O)/C1=C\\c1ccc(N(C)C)cc1", "Potency": "inconclusive [inhibitor, partial curve]"}
{"smiles": "O=C(O)c1cc2c(cn1)[nH]c1ccccc12", "Potency": "inactive"}
{"smiles": "CCN(CC)C(=O)CSc1nc2cccnc2n1-c1ccccc1OC", "Potency": "inconclusive [inhibitor, partial curve]"}
{"smiles": "COc1ccc(N(CC(=O)NC(C)c2ccccc2)S(=O)(=O)c2c(C)nn(C)c2C)cc1", "note": "(stereo not drawn)", "Potency": "inactive"}
{"smiles": "COC(=O)c1ccccc1NC(=O)CSc1nnc(C(CO)NC(=O)c2ccccc2)n1C", "note": "(stereo not drawn)", "Potency": "inconclusive [inhibitor, full curve]"}
{"smiles": "COC(c1ccccc1)c1nnc(CCC(=O)N(C)CCOc2ccccc2)o1", "note": "(stereo not drawn)", "Potency": "inactive"}
{"smiles": "CC[N+](CC)(CC)CCCCOc1ccc2c(c1)C(=O)c1cc(OCCCC[N+](CC)(CC)CC)ccc1-2", "Potency": "inactive"}
{"smiles": "COc1ccc(C2=C(Nc3ccc(Br)c(C)c3)c3ccccc3C2=O)cc1", "Potency": "inactive"}
{"smiles": "Cc1cccc(-c2noc(CCCC(=O)Nc3ccc(C(N)=O)cc3)n2)c1", "Potency": "inconclusive [inhibitor, full curve]"}
{"smiles": "Cc1ccc(OCC(=O)NCC(=O)Nc2ccc(F)c(F)c2F)c([N+](=O)[O-])n1", "Potency": "inactive"}
{"smiles": "COc1ccc(CCNC(=S)Nc2ccccc2)cc1", "Potency": "inactive"}
{"smiles": "CC1(C)c2ccccc2N2CC(=O)NC21/C=C/c1ccco1", "note": "(stereo not drawn)", "Potency": "inactive"}
